# ± gives the uncertainty stated by the source. The full ranking holds about 9,900 compounds; the median of “viability index relative to DMSO control” is about 1, and the lowest 2% start at about 0.85. Some of the results follow.
# Tested on: Plasmodium falciparum NF54 stage V gametocytes
# Assay: viability index relative to DMSO control (fraction); higher = less gametocyte killing
# Conditions: 2.5 µM, library set: Broad Institute DOS, incubation time: 72 h
# Outline: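 Gametocytes (P. falciparum NF54, stage V) were treated with compound at 2.5 µM for 72 hr at 37°C in low oxygen, in serum-free medium at 0.75% gametocytemia and 1.25% hematocrit. Counts of 20–70 µm2 red particles, taken from one field per well after MitoTracker Red CMXRos with saponin, were divided by the plate mean of solvent-only wells. This ratio is the viability index.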
row,Compound,viability index
1,C[C@@H]1CN([C@H](C)CO)C(=O)Cc2cc(NC(=O)Nc3ccc(F)cc3)ccc2O[C@H]1CN(C)S(C)(=O)=O,0.939 ± 0.16
2,COc1ccc2c3c([nH]c2c1)[C@@H](CO)N(CC1CC1)C[C@]31CN(Cc2cc(F)ccc2F)C1,0.983 ± 0.058
3,CCC(=O)N1Cc2cc(C(=O)NCc3cccc(F)c3)nc(-c3cccc(C4=CCCC4)c3)c2[C@H]1CCO,1.06 ± 0.016
4,C[C@@H]1CN([C@@H](C)CO)C(=O)c2cc(C#Cc3ccccc3)cnc2O[C@H]1CN(C)C(=O)c1ccccc1,1 ± 0.091
5,CCCNC(=O)C[C@@H]1CC[C@H]2[C@@H](COC[C@@H](O)CN2C(=O)Nc2ccc(Cl)c(Cl)c2)O1,1.02 ± 0.0087
6,CC(C)[C@H]1COCc2cn(nn2)CCC[C@H](C)C(=O)N1,0.99 ± 0.068
7,COc1cccc(C#Cc2ccc3c(c2)O[C@H](CN(C)C(=O)CN2CCOCC2)[C@H](C)CN([C@H](C)CO)S3(=O)=O)c1,0.972 ± 0.057
8,COCC(=O)N1CC[C@@H]2[C@H]1c1cc(-c3cccc(F)c3)ccc1N(C)[C@@H]2CO,1.086 ± 0.0022
9,C[C@@H]1CCCCO[C@H](CN(C)Cc2ccc(Cl)c(Cl)c2)[C@@H](C)CN([C@H](C)CO)C(=O)c2cc(NC(=O)CCCCCC(=O)Nc3ccccc3N)ccc2O1,0.858 ± 0.14
10,C[C@H](NC(=O)C[C@@H]1CC[C@@H]2[C@H](COC[C@@H](O)CN2C(=O)Nc2cccc(Cl)c2)O1)c1ccccc1,1.06 ± 0.072
11,C[C@@H]1CN([C@H](C)CO)C(=O)c2cc(N(C)C)ccc2O[C@@H](C)CCCCO[C@H]1CN(C)S(=O)(=O)c1cn(C)cn1,0.994 ± 0.026
12,Cc1noc(C)c1S(=O)(=O)Nc1ccc2c(c1)C(=O)N([C@H](C)CO)C[C@@H](C)[C@H](CN(C)C(=O)Nc1cccc3ccccc13)OCCCC[C@@H](C)O2,1.01 ± 0.079
13,CCS(=O)(=O)N[C@H]1C=C[C@@H](CC(=O)O)O[C@@H]1CO,0.95175 ± 0.00016
14,C/C=C/c1ccc([C@@H]2[C@@H](CO)N3CCCCN(S(=O)(=O)c4ccc(OC)cc4)C[C@@H]23)cc1,0.993 ± 0.055
15,CN(C)CC(=O)N1[C@H](CO)[C@H](c2ccccc2-c2ccc(C(=O)N(C)C)cc2)[C@@H]1C#N,1.1 ± 0.033
16,COCC(=O)N1CC2(C1)[C@H](c1ccccc1)[C@@H](CO)N2CCC(F)(F)F,1.08 ± 0.069
17,O=C(C[C@@H]1C=C[C@H](NC(=O)c2ccncc2)[C@@H](CO)O1)NCC1CC1,1.07 ± 0.07
18,O=S(=O)(c1ccc(F)cc1)N1CCCCN2[C@H](CO)[C@@H](c3ccc(-c4cncnc4)cc3)[C@@H]2C1,0.988 ± 0.048
19,COC(=O)C[C@H]1CC[C@H]2[C@@H](COC[C@H](O)CN2S(=O)(=O)c2cn(C)cn2)O1,1.04 ± 0.021
20,CN1C(=O)c2cc(NC(=O)c3cccc(C(F)(F)F)c3)ccc2OC[C@@H]2O[C@H](CC(=O)NCCN3CCCC3)CC[C@H]21,0.967 ± 0.15
21,CCS(=O)(=O)N1C[C@@]2(C1)CN([C@@H](CO)c1[nH]c3cc(OC)ccc3c21)C(=O)c1ccc(F)cc1,0.965 ± 0.1
22,Cc1noc(C)c1NC(=O)N1C[C@@H](O)COC[C@@H]2O[C@H](CC(=O)N[C@H]3CCN(Cc4ccccc4)C3)CC[C@H]21,0.998 ± 0.064

row,Compound,viability index
1,Cc1ccccc1S(=O)(=O)N1C[C@H](O)COC[C@@H]2O[C@H](CC(=O)N3CCCCC3)CC[C@H]21,0.945 ± 0.078
2,COc1cccc(-c2ccc([C@@H]3[C@H]4CNC[C@@H]3N4Cc3nccs3)cc2)c1,0.983 ± 0.079
3,CO[C@@H]1CN(C)C(=O)c2ccc(NC(=O)c3ccccc3F)cc2OC[C@H](C)N(C)C[C@H]1C,1.1 ± 0.15
4,COc1ccc(S(=O)(=O)Nc2ccc3c(c2)OC[C@@H](C)N(Cc2cc(F)ccc2F)C[C@@H](C)[C@H](OC)CN(C)C3=O)cc1,1.058 ± 0.0098
5,C[C@H](CO)N1C[C@H](C)[C@H](CN(C)C(=O)NC2CCCCC2)Oc2ccc(N(C)C)cc2CC1=O,1.13 ± 0.1
6,C[C@@H]1CN([C@@H](C)CO)C(=O)CCCn2cc(nn2)CO[C@H]1CN(C)Cc1ccccc1,1.11 ± 0.093
7,C[C@@H]1CN([C@H](C)CO)C(=O)c2cccc(NS(C)(=O)=O)c2O[C@H]1CN(C)Cc1ccc(-c2ccccc2)cc1,0.916 ± 0.13
8,CN1c2ccc(Br)cc2[C@@H]2[C@@H](CCN2S(=O)(=O)c2ccccc2F)[C@H]1CO,1.04 ± 0.1
9,CO[C@@H]1CN(C)C(=O)c2ccc(NC(=O)Nc3cc(F)ccc3F)cc2OC[C@@H](C)N(C(=O)c2ccccn2)C[C@@H]1C,1.08 ± 0.11
10,C/C=C/c1ccc([C@H]2[C@@H](CO)N(S(=O)(=O)CC)[C@H]2CN(C)C(=O)CC)cc1,1.0222 ± 0.00032
11,COc1ccc(S(=O)(=O)Nc2ccc3c(c2)CC(=O)N([C@H](C)CO)C[C@H](C)[C@@H](CN(C)C(=O)Nc2c(C)noc2C)O3)cc1,0.994 ± 0.086
12,COc1ccc2c3c([C@H](CO)N(Cc4ccccn4)C[C@]33CN(Cc4ccccn4)C3)n(C)c2c1,1.048 ± 0.0033
13,COc1ccc(S(=O)(=O)Nc2ccc3c(c2)C(=O)N([C@H](C)CO)C[C@@H](C)[C@@H](CN(C)Cc2ccc(C(F)(F)F)cc2)OCCCC[C@H](C)O3)cc1,1 ± 0.11
14,CCCNC(=O)N1CC[C@@]2(CC1)CN([C@@H](CO)c1c2c2ccc(OC)cc2n1C)C(=O)CC1CC1,1.06 ± 0.074
15,COc1cccc(C(=O)Nc2ccc3c(c2)C(=O)N(C)[C@H]2CC[C@@H](CC(=O)N[C@H](C)c4ccccc4)O[C@H]2CO3)c1,1.04 ± 0.077
16,COc1ccc(S(=O)(=O)Nc2ccc3c(c2)C(=O)N([C@@H](C)CO)C[C@@H](C)[C@H](CN(C)Cc2ccc(C(F)(F)F)cc2)OCCCC[C@@H](C)O3)cc1,0.974 ± 0.12
17,O=C(C[C@@H]1CC[C@@H]2[C@H](COC[C@@H](O)CN2C(=O)Nc2ccc(F)cc2)O1)NC1CCC1,1.07 ± 0.016
18,CCCNC(=O)N[C@H]1C=C[C@@H](CC(=O)N2CCN(C)CC2)O[C@H]1CO,0.945 ± 0.029
19,CN1C(=O)c2cc(NC(=O)CC(F)(F)F)ccc2OC[C@H]2O[C@@H](CC(=O)NC3CCC3)CC[C@@H]21,0.965 ± 0.098
20,CNC(=O)C[C@@H]1CC[C@@H]2[C@@H](COc3ccc(NS(=O)(=O)c4ccc(F)cc4)cc3C(=O)N2C)O1,1.0217 ± 0.00016
21,CCC(=O)N1[C@H](CO)[C@H]2c3ccccc3N(C(=O)Nc3ccc(Cl)cc3)C[C@H]21,1.04 ± 0.088
22,O=C(NC[C@@H]1[C@@H](c2ccccc2)[C@@H](CO)N1C(=O)C1CCC1)NC1CCCC1,1.05 ± 0.054

# Source: the supplement of paper PMC4723716
